Results: paper PMC12040169 (PLOS Biology, 2025)
The other results are listed elsewhere or left out.

test system: T1, C. trachomatis L2/434/Bu expressing GFP (CTL2-GFP); set-up: species or system HeLa; C. trachomatis total inclusion area by high-content imaging, normalised to DMSO; conditions: total inclusion area; 28.5 h, 10 µM; inhibitor
T1 construct: L2/434/Bu GFP intracellular growth in HeLa cells
How it was run: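 After bulk GFP and resorufin fluorescence reads, cells were fixed, stained with Hoechst and imaged by high-content microscopy. Inclusion area and number (GFP) stood in for chlamydial growth, nuclei count (Hoechst) for host cell viability. MICs were derived as for the bulk readout.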

Compound | % of control remaining
CN(C)CCNc1nc(-c2cccnc2)nc2ccccc12 [CBK264471C] | 111.895
CC(C)c1cc(C(=O)N2CC(N3CCOCC3)C2)nc2ncnn12 [CBK306572] | 85.7597
Cc1cc(CN(C)Cc2cnn(-c3ccc(F)cc3)c2)n[nH]1 [CBK281706] | 90.7362
CN(C)[C@H]1CCN(C(=O)c2ccc(Nc3cncc(Cl)n3)cn2)C1 [CBK172073] | 117.072
Cc1ccc(SCCNC(=O)C(C)Sc2ccc(Cl)cc2)cc1 (stereo not shown) [CBK264104] | 101.217
CC(C)c1nccc(CN2CCC(CCN3CCCC3=O)CC2)n1 [CBK306887] | 39.3161
COc1ccc2c(c1)C1(CC(=O)N(Cc3cccnc3)C1=O)C(=O)N2C (stereo not shown) [CBK075236] | 102.823
CC(C)C(=O)N1C[C@H]2N(C)C(=O)c3ccccc3C(=O)[C@@]2(C)C1 [CBK284568] | 118.155
Nc1cc(-c2cccs2)nn(Cc2ccccc2Cl)c1=O [CBK282884] | 111.374
COCc1cccc(-c2nccnc2OC2CCCCC2)c1 [CBK106959] | 105.971
Cc1ccc(-c2nsc(SCC(=O)c3ccc(Cl)cc3)n2)cc1 [CBK113177] | 108.937
COc1cc(-c2nccnc2NCC2CCCCC2)cc(OC)c1OC [CBK037647] | 80.9556
CCc1nc2ccc(C(=O)N(C)CCN(C)C)cn2c1N(C)Cc1cc2ccccc2s1 [CBK146551] | 87.1258
CS(=O)(=O)CCS(=O)(=O)N1CCOCC1c1cccc(F)c1 (stereo not shown) [CBK304111] | 23.8792
CNC(=O)c1cnc(SC)nc1NCCc1c[nH]c2ccccc12 [CBK093597] | 52.7287
O=C(O)C(c1c[nH]c2cc(CO)ccc12)N1CCCN(c2ccc(C(F)(F)F)cn2)CC1 (stereo not shown) [CBK286845] | 95.5886
COCCNC(=O)N1CCCC(CO)C1 (stereo not shown) [CBK156040] | 98.1381
CN(C(=O)C1(C)CCOCC1)c1nc2c(s1)CC(c1ccccc1)CC2 (stereo not shown) [CBK305531] | 81.9253
CC(=O)Nc1ccc(-c2ccc(C(=O)NCc3ccc(C(C)C)cc3)cn2)cc1 [CBK158857] | 64.6233
Cc1ccnc2nc(C(=O)OCC(=O)Nc3cccc(C#N)c3)nn12 [CBK305068] | 63.803
Cc1ccc(-c2ccc(CCC(=O)O)n2CC2CCCO2)cc1 (stereo not shown) [CBK268636] | 93.8287
c1ccc(-c2cccc(-c3cc(Nc4ccc(N5CCOCC5)cc4)ncn3)c2)cc1 [CBK090930] | 73.2722
